Experimental data as given in the supplement of paper PMC11417369.
± gives the standard deviation of the averaged measurements. Some of the results follow.

What follows are sequences tested on PfAP2-EXP AP2 domain (GST-tagged) (assay: gcPBM binding intensity (ln(normalized median fluorescence intensity)); higher = stronger DNA binding).
Procedure, shortened: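 GST-tagged P. falciparum DNA-binding domains, expressed in E. coli (about 25 μg on average), were applied for 1 h to an Agilent 4 × 180k array of primer-extended double-stranded 36-bp intergenic genomic probes plus negative controls. The binding buffer was 1× PBS with 1% milk, 0.2 mg/ml BSA, 0.5% salmon testes DNA and 0.03% Triton X-100. Bound protein was detected with Alexa488 anti-GST antibody and scanned at 488 nm. Binding intensity is the highest Masliner-normalised natural-log median intensity across replicate spots of either probe orientation.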

Sequence	gcPBM binding intensity (ln)
TAAACCTGTAGAGATGCATGCATTGTTAACATGGTG [TGCATGCA_site515]	9.69 ± 0.24
ACATGTGAAGGGAACATAAATTGGGGTTTTATATTG [XGTACX_negctrl_site508]	8.88 ± 0.86
AAATTATAAATAATTTGTACATAAAAATTGGTAAAG [XGTACX_site5197]	8.6 ± 0.24
GAATATAAAAAAGAATGTACTTGAACAGTCCTAAAA [XGTACX_site745]	8.33 ± 0.34
TTTTGTTAGTTTTTTTTCTTATATTACATTTTCACG [CACACA_negctrl_site1466]	8.82 ± 0.42
TTTTTTATATTAAATGAAGAATATACAAAATTTTAA [CACACA_negctrl_site558]	8.27 ± 0.45
ATGTAGTCTCAAGACTGTACAAACAAGTAAATAAAA [XGTACX_site4120]	8.81 ± 0.49
AATAAATATCAATACACACACACAAAAGTGAATAAA [CACACA_site3763]	8.54 ± 0.62
TATACATTTATGTACACACACATATATGTATATTTA [CACACA_site2966]	8.33 ± 0.28
ACAATTTTATTTAAAGTGCATGTAAAATTAAAACTT	8.91 ± 0.16
AAAGGAAGAAAAAATAGTACATATATATATATATAA [XGTACX_site766]	8.63 ± 0.25
GTTAAGGGTATATATACACACATATGTAATACATGA [CACACA_site5650]	8.91 ± 0.47
TCCATCCACATATATGTACACACATATATATATATA [CACACA_site8970]	10.1 ± 0.4
TACTGTGTTTTGGTTGTACACACGCTACATTATATA [CACACA_site8863]	9.01 ± 0.36
TTATAATATTAATGTGCACACAATTAAAATATTATA [CACACA_site2046]	8.74 ± 0.028
TTCTTAAATGTAAATGTATATGTATTAAAAAGAGAA [TGCATGCA_negctrl_site597]	8.61 ± 0.44
ATAGTATACAGACACACACACACACCCATATATATA [CACACA_site1736]	8.71 ± 0.39
AGGATATAAATATTCACACACACATGGAGATATATA [CACACA_site6317]	8.71 ± 0.59
ATACTAAATGAACACACACACATATATATATATAAT [CACACA_site4232]	8.82 ± 0.42
AACAGACATAGAAACACACATACATACATACATACA [CACACA_site2479]	9.36 ± 0.28
TATAACTTTTTTATTACACACCTATGTAATATTATA [CACACA_site944]	8.46 ± 0.29
AAATAAATATATAATACACACAAAAATATAAAATGG [CACACA_site5943]	8.87 ± 0.35

Sequence	gcPBM binding intensity (ln)
ATGTTTTATATTTTTTTTTTGTTTGCTTGTTTCCTC [CACACA_negctrl_site870]	8.73 ± 0.7
AAGGGAAATATTGAAACACACACGAACCCACGTATT [CACACA_site252]	8.54 ± 0.65
TATATTATAATAAGACGTACAAGGATGTTAAAACTT [XGTACX_site5828]	8.68 ± 0.28
TTAATTATGGACAGGGTGCACATGAATAATAATACC	9.76 ± 0.21
TACATTAACGGATTATTTCTCAATACAACATCATTT [CACACA_negctrl_site981]	8.44 ± 0.64
GTTTGTATGTCCAAATGTACATATGATTTTATGAAA [XGTACX_site6595]	8.72 ± 0.28
AAAATTAAAAATTACTGTACGTATTAGAGAATAAAT [XGTACX_site2567]	8.53 ± 0.32
ACCTAATTCAAATACAGTACATATACAATATATATA [XGTACX_site2779]	8.55 ± 0.25
AAAAAATATTGAAGTACACACATTATAAACTTTTTT [CACACA_site5029]	8.41 ± 0.33
TATATTGTATAAAAATGTACATGCAATAAATTTAGT [XGTACX_site5621]	9.37 ± 0.39
AAAATATTAATTAATACATGCATATATATATATATA [TGCATGCA_site585]	10.1 ± 0.34
GTATATATCTCAGAGCATAATAGTATAATTCGGTCA [CACACA_negctrl_site876]	8.46 ± 0.53
AATTATTTTAGAAACACACAAATTAGAAAAAACATA [CACACA_site7673]	8.71 ± 0.57
CAGAAATATTCTTATACACACTGTTCTTATATTCCT [CACACA_site4318]	8.71 ± 0.48
AATATATATATAAATAGTACATATAAAGAGAATTTT [XGTACX_site3168]	8.64 ± 0.47
TTTATCTTTTTTTGTTGTACAGATGTTTATATTTTA [XGTACX_site4065]	8.82 ± 0.42
ATTAAAACAAAATGTACACACATATAATTTAATGAC [CACACA_site878]	8.62 ± 0.29
AATAACATTATTTTATGTACACATGAAAAATAAAAT [XGTACX_site4657]	8.65 ± 0.28
AATATCAAAATAACATGTACATGTTATATTTTATTT [XGTACX_site5891]	8.48 ± 0.38
TGTAATAAACTACTTTTTTTTTTTTTTTTTTTTTTT [CACACA_negctrl_site1021]	8.99 ± 0.35
TGATATTTCATCATAGTGCAATATGGCATATAAATA [GTGCAC_site9433]	8.64 ± 0.099
CATATATACAGTAACACACACAAAAAAATATGAATA [CACACA_site3996]	8.82 ± 0.52

Sequence	gcPBM binding intensity (ln)
TTATTTATTTATTATAGTTCACTTGAAAATACAAGA [CACACA_negctrl_site1480]	8.26 ± 0.38
TAATTTATAACACGCGCACACATATATATATAGTAA [CACACA_site121]	9.16 ± 0.4
AATAGTGTCATAAAAACTATTATCATATAATGTGAA [CACACA_negctrl_site1578]	8.42 ± 0.51
TTGTTGTGTATTATCGTGCACATAATATAAAAGATT	9.31 ± 0.45
TTTCTTTTTAACTCTTACATAATAGGTGGTAGAAGG [TGCATGCA_negctrl_site176]	8.59 ± 0.31
TTCTTAAAAAATCAAACACACATATATAAATACATA [CACACA_site5301]	8.6 ± 0.3
AAAAAATATAAAAAAACACACAAAAAAAAAAAAAAA [CACACA_site1382]	8.1 ± 0.37
CCCCATTTATCTTAAGCATGCCATGGTTTTAGATAT [TGCATGCA_site24]	9.45 ± 0.45
AAAGACGTTTATAAATGTACATACACTTTAAAAGTT [XGTACX_site8753]	8.66 ± 0.3
ATAAAAAAAAAAAATACACACATATATATATATATA [CACACA_site1709]	10.1 ± 0.26
TATATTTTTTAAAAAAGTACAAAGTAATTATTGATT [XGTACX_site2420]	8.56 ± 0.37
TGAAATGAAAGAACAGCACACATATATATTATATAT [CACACA_site8613]	8.64 ± 0.42
GTAGTACATTCTAGAATACACACCTATATATATATA [CACACA_site522]	10 ± 0.24
ATATGAAAAACTTCATGTACTTATTATAAAATATAA [XGTACX_site2725]	8.14 ± 0.19
CTTTTTTTTTTGTATTGTACTTTATTTTTACATCGT [XGTACX_site2918]	8.8 ± 0.47
ATTTTTAATTTTTTCACACATATATTTAAAATAAAA [CACACA_site4799]	8.41 ± 0.46
ATTCTAATTTTATGAAACGATTATTTTGAATTCATT [XGTACX_negctrl_site578]	8.45 ± 0.38
ATAAAAAAAAATATATGTACATATATAAATTGATAT [XGTACX_site7409]	8.73 ± 0.42
GATTACCTTTTTTTTTTTTTTTTTTTTTTTTTTTTC [CACACA_negctrl_site147]	8.14 ± 0.52
TTATAGACATATATAGGTACACATATTTTCAATCCC [XGTACX_site8230]	8.72 ± 0.65
ATTTATTAATCATATACACACATATATTTGTATTTA [CACACA_site1336]	8.55 ± 0.4
TATTTTTTTAAAATAGGTACACAATCAAACATTTAT [XGTACX_site8785]	8.63 ± 0.42

Sequence	gcPBM binding intensity (ln)
ACCTCATAATATTTAACACACAAAATTATCTGTATG [CACACA_site5015]	8.94 ± 0.43
CGTCCAAAATATCCTTCACACACGAACAGTTTCATT [CACACA_site2729]	8.76 ± 0.41
TTTAAATAAAAATGGAGTACTCTAAAAAAAAAAAAA [XGTACX_site1233]	8.53 ± 0.63
CTATAATATTATAACAGTACATAATATTATATATAT [XGTACX_site1414]	8.58 ± 0.24
GCATTGATCAAACATACACACATGGTTAATAAAAAT [CACACA_site2085]	8.72 ± 0.55
ATATATATATATAATACACACATAAATGAATATATA [CACACA_site316]	9.85 ± 0.18
TTTATATAATATTCTACACACCAACAACAAACATAT [CACACA_site4478]	8.92 ± 0.47
GTGATTTCTATGAATTGTACTTAAATATAGTTATAT [XGTACX_site231]	8.51 ± 0.28
AAAAAACGCACTCGTACACACATATTTTCTTTCTAA [CACACA_site3089]	8.61 ± 0.16
AATATTTACCAGAAAATAAAAATATGTATATATATA [CACACA_negctrl_site351]	9.19 ± 0.071
ATATAATCAACTGCAAAGGTTTAAAAGGAAAAAATA [CACACA_negctrl_site989]	8.7 ± 0.44
TTAATTACACAAAAAAGTACTTGATATTGTTTATTA [XGTACX_site3449]	8.17 ± 0.34
AATATTTATATTTACACACACATAATACATATATGT [CACACA_site33]	8.49 ± 0.27
TTTTTATTCAACAAAAATATCAAACATAATTATAAA [CACACA_negctrl_site616]	8.67 ± 0.45
ATATACAACTAAAGAACACACATCATTGTTCATTGG [CACACA_site3681]	8.4 ± 0.44
TTCCTTTAACCCTGCACACATACATACATTTATATG [CACACA_site3953]	9.08 ± 0.45
ATTTTTATGTCTTTCTATAAATCGAAAATATACATA [CACACA_negctrl_site477]	8.2 ± 0.17
TAAAATAGAAATATATGTACATATATATATGTATAT [XGTACX_site4134]	8.39 ± 0.35
ATTTATATTTTTTAATGTACATTTATATGTATACAA [XGTACX_site4555]	8.78 ± 0.41
CGATATTCTAAGGATAGTACATAATAAAATAGAGTA [XGTACX_site4224]	8.6 ± 0.44
AAAAAAAAATATATATATATATATATATAATAAAAA [CACACA_negctrl_site639]	8.51 ± 0.27
ATTCTACACGCACATACACACATATAAATATAAATA [CACACA_site7582]	9.02 ± 0.28
